Experimental data published in the RNAGym collection of RNA variant scans (doi:10.7554/elife.90254).
Read counts are not given, so values of variants with three or more changes are uncertain.

B1: LINE1-mini (parent)
chain: GGCAGAGCUCAACACAGCGUGGCAAAGUGGCUGUGGCUAGACUGCC

Variants of: B1
Experiment: self-cleavage, relative activity (ratio to wild type); higher = more cleavage; in vitro, sequencing; the parent is a self-cleaving ribozyme

Variant | self-cleavage
G29U G35U G40A | 0.05
G29U G35U U38G | 0.03
G29U G36A C37A C46A | 0.35
G29U G36A C42G | 0
G29U G36A G40C | 0.09
G29U G36A G40U | 0.19
G29U G40U A41U | 0.25
G29U U32C C45U | 0.1
G29U U32G C45A | 0.04
G29U U32G G36A | 0.05
G29U U32G U34G | 0.13
G29U U34A C37G | 0.03
G29U U34C C45A | 0.08
G29U U34G C37A | 0.1
G29U U38A G40U | 0.01
G29U U38C C45U | 0.55
G29U U43C G44C | 0.03
G30A A39C A41C | 0.06
G30A A41G C45U | 0.04
G30A C31A C37A | 0.17
G30A C31A C45A | 0.16
G30A C31A G33C A39U | 0.07
G30A C31U C37A A41G | 0.05
G30A C37A A39C | 0.48

Variant | self-cleavage
G30A C37G C46G | 0.02
G30A C42A G44U | 0.03
G30A G33A A41C C46G | 0.1
G30A G33U G36A | 0.02
G30A G35A C42A | 0.12
G30A G35A G44U | 0.06
G30A G35C A39G | 0.05
G30A G35C U43C | 0.11
G30A G35U G36C | 0.06
G30A G36U C46G | 0.01
G30A G40C C46U | 0.07
G30A G44C C45G | 0.06
G30A U32A G44A C46U | 0.04
G30A U32C A41C C42A | 0.01
G30A U32C G35U | 0.04
G30A U32C G44C | 0.03
G30A U32G C42U | 0.03
G30A U32G G33A A39U | 0.05
G30A U32G G44C | 0.03
G30A U34A C42A | 0.03
G30A U34A G36U | 0.05
G30A U34G G40C A41G G44C | 0.01
G30A U38G G40A | 0.06
G30C A39G C45U | 0.03

Variant | self-cleavage
G30C A39G U43A | 0.15
G30C A41U C42U | 0.04
G30C C31A U38G | 0.04
G30C C31G U34C G40C | 0.01
G30C C31U A39G C42U | 0.11
G30C C37G U38A | 0.06
G30C C42U U43G | 0.03
G30C G33C A39U | 0.06
G30C G35U G44C | 0.02
G30C G36A C42G | 0.1
G30C G36U A41C | 0.01
G30C G36U C37A | 0.07
G30C U32A A41G C45U | 0.03
G30C U32C G44U | 0.06
G30C U32G C46G | 0.03
G30C U34A C46U | 0.17
G30C U34A U38C G40U G44A | 0.06
G30C U34C G35C | 0.09
G30C U34G A41U | 0.04
G30C U38A A41G | 0.29
G30C U38C A39U | 0.87
G30C U38C C45A | 0.05
G30C U38C G40C C46G | 0.01
G30C U38G G40A U43A | 0.12

Variant | self-cleavage
G30U A39G A41U | 0.07
G30U A39U G44U | 0
G30U A41U C45U | 0.35
G30U C31A A39U | 0.05
G30U C31A U43A | 0.06
G30U C31G A41G | 0
G30U C31G G40U | 0.11
G30U C31G U32C | 0.1
G30U C31U C37A | 0.08
G30U C31U G36C U43G | 0.06
G30U C37G A41C | 0.02
G30U C42A G44C | 0.03
G30U C42G U43C G44U | 0.07
G30U C42U U43G | 0.04
G30U G33U A39U | 0.15
G30U G33U C37U A41G | 0.12
G30U G33U G36A C45A | 0.02
G30U G35A C45A | 0.02
G30U G35A C45G | 0.01
G30U G35C C37A | 0.07
G30U G35U C45G | 0.05
G30U G36U C46U | 0.07
G30U G40U C45A | 0.09
G30U G44A C45U | 0.12

Variant | self-cleavage
G30U U32A G33C | 0.01
G30U U32C A39G | 0.03
G30U U32C C37U A41U | 0.07
G30U U32C U34A | 0.04
G30U U32C U34G | 0.06
G30U U32G G35A G44A | 0.04
G30U U32G G44U | 0.22
G30U U34A C46U | 0.03
G30U U34G C45A | 0.02
G30U U43A G44A | 0.1
C31A A39C G40A | 0.15
C31A A39C G40C | 0.08
C31A A39U A41U | 0.01
C31A A39U C42A | 0.05
C31A A41G U43A | 0.02
C31A C37A A39C | 0.74
C31A C37A C46A | 0.03
C31A C37A G40U | 0.08
C31A C37G U38A | 0.04
C31A C37U A41G | 0.04
C31A C42A C46A | 0.01
C31A C42U C46G | 0.02
C31A G33A C45U | 0.07
C31A G33C C37U | 0.16

Variant | self-cleavage
C31A G33U C45A | 0.12
C31A G33U G36U | 0.02
C31A G35C A39C | 0.02
C31A G35C A41U | 0.19
C31A G35U A39C | 0.05
C31A G35U C42A | 0.03
C31A G36U A41U | 0.16
C31A G40U C42A | 0.02
C31A G44A C45G | 0.13
C31A G44A C46G | 0.11
C31A G44U C45A | 0
C31A U32A C45G | 0.09
C31A U32A G36A A39C | 0
C31A U32G C37A | 0.15
C31A U32G G35C | 0.11
C31A U34A A41G | 0.07
C31A U34G A39G C45A C46U | 0.01
C31A U38G A41G | 0.04
C31A U43C C45A | 0.04
C31A U43G C45A | 0
C31G A39U G40U | 0.07
C31G A41C G44A | 0.05
C31G C37A U43A | 0.07
C31G C37G G44C C46A | 0.02

Variant | self-cleavage
C31G C42A G44U | 0.04
C31G C42U U43A | 0.03
C31G G33A G36A | 0.1
C31G G33C C37U | 0.05
C31G G33U G35A G40C G44U C45A | 0.01
C31G G33U U34A G44U | 0.02
C31G G35A C45A | 0.12
C31G G35A G40C | 0
C31G G35C C46U | 0.06
C31G G35C G40C | 0.05
C31G G36A C45A | 0.02
C31G G36C A41C | 0
C31G G36C G40U | 0.03
C31G G36U U38A | 0.01
C31G G40C A41G | 0.03
C31G G40U C42A C45A | 0.01
C31G U32G G36C | 0.03
C31G U32G G36U | 0.05
C31G U34C U38A | 0.05
C31G U34G C45U | 0.06
C31G U34G G36C | 0.01
C31G U38A A39C G40A C46A | 0
C31G U38C G40C | 0.03
